# According to article PMC4336329 (PLoS ONE, 2015):
# The campaign covered roughly 310,000 compounds. About 2,200 (0.71%) showed an effect of 50% or more. Effects have a minus sign here. This is one part of the list.
# Target: human ether-à-go-go-related gene (hERG) potassium channel (human, UniProt Q12809)
# Test: primary screen, population patch clamp on CHO cells stably expressing hERG
# Chain of human ether-à-go-go-related gene (hERG) potassium channel (Q12809 whole entry, looked up): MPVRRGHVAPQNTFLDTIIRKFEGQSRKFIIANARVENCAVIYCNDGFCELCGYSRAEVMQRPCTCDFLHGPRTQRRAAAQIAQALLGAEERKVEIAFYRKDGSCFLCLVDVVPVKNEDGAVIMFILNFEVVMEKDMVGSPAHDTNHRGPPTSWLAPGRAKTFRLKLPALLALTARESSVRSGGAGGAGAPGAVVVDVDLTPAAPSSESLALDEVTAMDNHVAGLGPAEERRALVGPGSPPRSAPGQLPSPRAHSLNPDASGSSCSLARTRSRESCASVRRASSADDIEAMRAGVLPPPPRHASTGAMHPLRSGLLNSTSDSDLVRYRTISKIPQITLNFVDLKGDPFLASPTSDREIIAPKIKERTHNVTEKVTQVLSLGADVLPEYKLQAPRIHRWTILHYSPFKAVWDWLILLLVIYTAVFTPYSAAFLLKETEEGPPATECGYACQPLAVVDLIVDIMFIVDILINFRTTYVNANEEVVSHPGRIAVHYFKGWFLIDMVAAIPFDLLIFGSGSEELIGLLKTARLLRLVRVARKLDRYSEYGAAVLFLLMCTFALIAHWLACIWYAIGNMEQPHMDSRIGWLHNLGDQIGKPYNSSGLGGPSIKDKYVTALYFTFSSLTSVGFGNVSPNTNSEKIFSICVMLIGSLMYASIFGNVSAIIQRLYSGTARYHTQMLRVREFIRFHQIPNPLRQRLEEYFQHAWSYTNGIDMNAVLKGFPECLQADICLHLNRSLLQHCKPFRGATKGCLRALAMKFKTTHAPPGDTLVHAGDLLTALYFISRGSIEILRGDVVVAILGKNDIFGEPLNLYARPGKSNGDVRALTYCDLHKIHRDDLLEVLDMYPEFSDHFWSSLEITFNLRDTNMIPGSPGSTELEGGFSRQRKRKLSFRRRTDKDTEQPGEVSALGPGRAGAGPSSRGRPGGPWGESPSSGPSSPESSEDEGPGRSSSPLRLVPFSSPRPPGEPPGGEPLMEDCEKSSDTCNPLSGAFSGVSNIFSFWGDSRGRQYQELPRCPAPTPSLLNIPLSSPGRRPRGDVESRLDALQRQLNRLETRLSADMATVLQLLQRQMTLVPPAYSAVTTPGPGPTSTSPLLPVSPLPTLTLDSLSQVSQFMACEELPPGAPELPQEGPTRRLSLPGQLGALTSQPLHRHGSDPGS
row,Structure (SMILES),"hERG current change (%, negative = inhibition) at 1uM [%]"
1,Cc1ccc(NC(=S)NC(=O)/C=C/c2ccco2)c(O)c1,5.75
2,CCc1ccc(-c2cc(C)no2)cc1S(=O)(=O)N1CCN(c2ccc(C(C)=O)cc2)CC1,4.82
3,Brc1ccc(C2Nc3cccc4cccc(c34)N2)o1,18.5
4,C/C(=C\[C@@H](NP(=O)(c1ccccc1)c1ccccc1)c1ccccc1)CO[Si](c1ccccc1)(c1ccccc1)C(C)(C)C,9.91
5,Cl.c1csc(CNCc2ccncc2)c1,-5.42
6,COc1ccc(Cn2c(C3CC3)nc3ccc(NC(=O)c4cccnc4)cc3c2=O)cc1,-4.92
7,COc1ccc(-n2c(=O)c3ccccc3n(Cc3ccc(F)cc3)c2=O)cc1OC,21.2
8,CC(Sc1cccc[n+]1[O-])C(=O)Nc1cccc(S(=O)(=O)N2CCOCC2)c1 (stereo not drawn),9.93
9,Cn1c(=O)c2c(ncn2Cc2ccc(Cl)c(Cl)c2)n(C)c1=O,13.2
10,O=C(O)CCC(=O)NN1C(=O)c2ccccc2NC1c1ccco1 (stereo not drawn),17.1
11,Cc1ccc(-c2nc3cc(C)ccc3o2)cc1,15.8
12,COC(=O)CC1Oc2ccccc2N(Cc2ccc(C)cc2)C1=O (stereo not drawn),3.03
13,CC(=O)c1c(N)[nH]c(-c2ccccc2)nc1=S,0.135
14,COc1ccc(C(C(=O)NC(C)(C)C)N(C(=O)Cn2nnc3ccccc32)c2cccc(C(C)=O)c2)cc1O (stereo not drawn),0.152
15,COC(=O)N[C@@H]1C[C@H]2[C@@H]3CC[C@H]4C[C@@H](OC)CC[C@]4(C)[C@H]3CC[C@]12C,17.1
16,COc1ccc(Nc2nc(C)nc3c2oc2ccccc23)c(OC)c1,0.0921
17,CCOC(=O)N1CCN(Cc2nc3c(c(=O)n(C)c(=O)n3C)n2CCCc2ccccc2)CC1,-9.67
18,O=C1COCCOCCOCCOCC(=O)NCCN1,14
19,NC(=O)C1=C[C@H](c2ccccc2)C[C@H](OCc2ccc(CO)cc2)O1,12.9
20,CN(Cc1cccc(F)c1)CC(O)COCc1ccccc1Cl (stereo not drawn),2.83
21,CN(C(=S)Nc1ccc(Oc2ccccc2)cc1)c1ccc(O)cc1,5.67
22,Clc1ccccc1CN(Cc1ccccc1)c1ncnc2nc[nH]c12,27.7
23,CCc1ccc(NC(=O)c2ccccc2SC)cc1,6.12
24,COc1cccc(C(=O)Nc2cccc(OCC(=O)O)c2)c1,10.5
25,Cc1ccc2sc(N(CCN(C)C)C(=O)/C=C/c3cccs3)nc2c1C.Cl,15.7
26,O=C(NCc1cccs1)c1ccc(N2CCCCC2)nc1,2.34
27,COc1ccc(OC)c(-c2csc(N(CC3CCCO3)C(=O)Cc3ccccc3)n2)c1 (stereo not drawn),13.6

row,Structure (SMILES),"hERG current change (%, negative = inhibition) at 1uM [%]"
1,COc1ccc(N2CCN(C(=O)COC(=O)c3ccc(Cl)nc3)CC2)cc1,14.1
2,CC(C)c1ccc(C(=O)NNC(=O)C2C3CCC(C3)C2C(=O)O)cc1 (stereo not drawn),-1.94
3,Cc1ccc(-n2nc3c(=O)n(CCCC(=O)NCc4ccc(Cl)cc4)nc(C)c3c2C)cc1,8.96
4,O=C(c1cc(S(=O)(=O)N2CCCCC2)ccc1N1CCOCC1)N1CCN(Cc2ccccc2)CC1,9.4
5,COc1ccc2nc3sc(C(=O)NCCN4CCc5ccccc5C4)cc3cc2c1,-7.11
6,CN(C)S(=O)(=O)c1ccc(N2CCCC2)c(C(=O)Nc2ccccc2Br)c1,-26.8
7,O=C(CSc1nnnn1-c1cccc2c1CCCC2)N1CCCCC1,-0.697
8,COc1ccc(C2=NS(=O)(=O)N(C)C(C(=O)Nc3cc(C)ccc3O)=C2)cc1OC,-4.56
9,Cc1ccc(NC(=O)CS(=O)CC(=O)NCC2OCCc3ccccc32)c(C)c1 (stereo not drawn),5.82
10,Nc1nc(Nc2ccccc2F)nc(NCc2ccccc2)c1[N+](=O)[O-],13
11,CS(=O)(=O)N(CC(=O)N/N=C/c1cc2c(cc1Br)OCO2)c1ccccc1Br,1.19
12,O=C(NCc1cn2ccccc2n1)c1ccc2c(c1)OCO2,14.2
13,COc1ccc(NC(=O)c2ccc3[nH]c(C)c(C)c3c2)cc1,11.1
14,CC1(C)COC(c2cc([N+](=O)[O-])ccc2Cl)=N1,4.69
15,N#Cc1c(-c2ccccc2)nc(SCC(=O)Nc2ccccc2)[nH]c1=O,2.31
16,O=C(CCl)N(Cc1cc(=O)[nH]c2ccccc12)c1ccccc1,5.59
17,Cc1cc(C)c(C#N)c(N2CCN(Cc3ccccc3)CC2)n1,-3.66
18,Cc1ccccc1CCN(C(=O)c1csnn1)C(C(=O)NC1CCCC1)c1ccco1 (stereo not drawn),12.4
19,COc1cccc(CNC(=O)CCC2CCCN(C(=O)c3cccnc3SC)C2)c1 (stereo not drawn),15.7
20,CC(=O)Nc1ccc(S(=O)(=O)NCCOc2ccc(Cl)cc2C)cc1,10.8
21,CCOc1cccc(-c2nn3c(-c4cc(C)[nH]n4)nnc3s2)c1,-8.21
22,O=C(Nc1ncccc1O)c1ccc(S(=O)(=O)N2CCCC2)cc1,11.8
23,CN(Cc1ccccn1)Cc1nc(Cc2ccccc2Cl)no1,1.03
24,COc1cc2c(=O)c(-c3ccc(O)cc3)coc2cc1OC1OC(CO)C(O)C(O)C1O (stereo not drawn),15.4
25,Cc1ccc2c(c1)C(c1ccccc1)N(C(=O)c1ccc(Br)o1)CC(=O)N2 (stereo not drawn),-17.7
26,CN(C)CCCN(C(=O)c1ccco1)c1nc2c(F)cccc2s1.Cl,-62.9
27,Cc1ccc2nc(/C(C#N)=C\c3ccc(Oc4ccc([N+](=O)[O-])cn4)cc3)[nH]c2c1,16.9
